Experimental data taken from PubChem BioAssay AID686978 (National Center for Advancing Translational Sciences (NCATS), 2013).
Values joined by “and” are separate entries in the source; they are usually repeats but may differ in a detail not shown here. Equal values may be shown once. Among all 420,000 compounds or so, about 64,000 (15%) were called active. The shares of active, inactive and inconclusive entries below differ from those in the screen. The call rests on the fitted dose curve; in most records, active means well fitted inhibition curve with a large enough effect; inconclusive means small, poorly fitted or top-dose-only effect; inactive means flat fitted curve, though single readings scatter. Where the call is inconclusive, the potency comes from a doubtful curve fit.

Test: qHTS for Inhibitors of human tyrosyl-DNA phosphodiesterase 1 (TDP1): qHTS in cells in absence of CPT; further: nearly all actives have a fitted effect of over 55% in size
Settings: DT40 Tdp1-/- hTDP1 cells, no CPT, ATP luminescence, 48 h; activity change, negative = growth inhibition: at 46.2 µM (top of the series) unless noted
How it was run: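 Seeded 400 DT40-hTDP1 cells/well (vehicle DMSO, no 20 nM CPT); pinned compounds; ≥48 hr at 37 °C; CellTiter-Glo luminescence as viability measure.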
On the % scale 0 is the no-effect control and ±100 the full control effect; potency means the concentration at half of the fitted maximal effect; tags describe the fitted curve by direction and shape.

Row | SMILES | activity change, negative = growth inhibition | Potency
1 | COc1ccc(/C=C/c2cc(C(F)(F)F)on2)cc1 | inactive: 0.592% | 
2 | CN1CCN(c2ncnc3c2cnn3-c2cccc(Cl)c2)CC1 |  | active: 16.4 µM
3 | COc1ccc(Cl)cc1S(=O)(=O)N1CCN(CC(=O)C(C)(C)C)CC1 |  | inconclusive: 36.6 µM [inhibitor, partial curve, poor fit]
4 | COc1cccc(CN2CCN(Cc3ccccc3C(F)(F)F)CC2)c1 |  | inconclusive: 25.9 µM [inhibitor, single point]
5 | CN(C(=O)c1nn(C)c2c1CSc1ccccc1-2)c1ccccc1Cl |  | inconclusive: 29.1 µM [inhibitor, partial curve]
6 | CN(c1ccc(C(=O)Nc2ccc(Cl)cn2)cc1)S(=O)(=O)c1ccccc1 |  | active: 20.6 µM
7 | c1ccc(C2=Nn3c(nnc3-c3cc(-c4ccccc4)n[nH]3)SC2)cc1 |  | inconclusive: 18.4 µM [inhibitor, single point]
8 | COc1ccccc1C(=O)NC(=S)Nc1ccc(N2CCOCC2)c(Cl)c1 |  | inconclusive: 23.1 µM [inhibitor, single point]
9 | O=C(N/C(=C\c1ccccc1)C(=O)N1CCCCC1)c1ccc(Br)o1 |  | inconclusive: 14.6 µM [inhibitor, partial curve]
10 | CCc1nc2c(OCCC3CCCCC3)cccn2c1N(C)C(=O)COc1ccccc1 |  | inconclusive: 16.4 µM [inhibitor, single point]
11 | C/C(=N\NC(N)=S)C1(C)CC2(CC(C)(C)OC2=O)C(=O)O1 (stereo not given) | inactive: -3.8% | 
12 | CCOC(=O)/C=C/C(=O)OCC(=O)Nc1cccc(Cl)c1Cl |  | inconclusive: 11.6 µM [inhibitor, partial curve]
13 | Clc1ccc(-n2nnnc2-c2cnc(-c3ccccn3)nc2-c2cccs2)cc1 |  | active: 5.17 µM
14 | COc1ccc2c(c1)c(C(=O)CN1CCN(c3ccccc3)CC1)c(C)n2C |  | inconclusive: 23.1 µM [inhibitor, single point]
15 | COC(=O)c1c(C(=O)OC)c2oc3ccccc3n2c1Cl | inactive: -1.52% | 
16 | Cc1ccc(S(=O)(=O)Nc2ccc3c(c2)nc2n3CCN(Cc3ccccc3)C2)cc1 |  | inconclusive: 20.6 µM [inhibitor, single point]
17 | O=C(NC(=S)NCc1ccc(Cl)cc1)c1ccco1 |  | inconclusive: 20.6 µM [inhibitor, single point]
18 | CSc1ccc(CNC(=O)CCn2ccc3cc(S(=O)(=O)N4CCC(C)CC4)ccc32)cc1 |  | inconclusive: 29.1 µM [inhibitor, single point]
19 | C=CCN(Cc1ccc(OC)c(OC)c1)C(=O)N1CCOCC1 | inactive: 0.992% | 
20 | CCN(CC)C(=O)C1=C(C)N(Cc2ccccc2)C(=O)C(CC(=O)NCCCCc2ccccc2)C1 (stereo not given) |  | active: 25.9 µM
21 | COc1cccc(-n2nnc3c(sc4nc(C)cc(C)c43)c2=O)c1 | inactive: -15.3% | 
22 | CC1=C(c2ccc(C)cc2)S(=O)(=O)N(Cc2ccc(C(=O)NCc3cccc(C)c3)cc2)C1=O |  | inconclusive: 23.1 µM [inhibitor, single point]
23 | CC(=O)N1c2ccc(S(=O)(=O)N(C)Cc3ccco3)cc2CC1C (stereo not given) | inactive: -11.8% | 
24 | COc1ccc(C2C(C#N)=C(N)N(c3sc4c(c3C#N)CCCC4)C3=C2C(=O)CC(C)(C)C3)cc1OC (stereo not given) |  | inconclusive: 18.4 µM [inhibitor, single point]

Row | SMILES | activity change, negative = growth inhibition | Potency
25 | C=CCSc1nnc2n(CCc3ccccc3)c(=O)c3c4c(sc3n12)COC(C)(C)C4 |  | inconclusive: 23.1 µM [inhibitor, single point]
26 | COc1cccc(C2CC(c3ccc(Cl)cc3Cl)n3nc(N)nc3N2)c1 (stereo not given) |  | inconclusive: 14.6 µM [inhibitor, partial curve]
27 | O=C(Nc1ccc(Cl)cc1)N1CC=CCC1 |  | inconclusive: 25.9 µM [inhibitor, single point]
28 | CCN(CC)c1ccc(C(=O)N/N=C(\C)c2cccc(OC)c2)cc1 |  | inconclusive: 29.1 µM [inhibitor, single point]
29 | OCCN1CCN(c2ncnc3c2ncn3[C@H]2CN(Cc3cccc(C(F)(F)F)c3)C[C@@H](CO)O2)CC1 |  | inconclusive: 29.1 µM [inhibitor, single point]
30 | COc1ccccc1CNS(=O)(=O)c1ccc2[nH]c3c(c2c1)CCCCC3 |  | active: 7.31 µM
31 | FC(F)(F)c1cccc(N2CCN(Cc3cccnc3)CC2)c1 | inactive: -17.2% | 
32 | CCOc1ncccc1C(=O)NC(C)CCc1ccccc1 (stereo not given) |  | inconclusive: 25.9 µM [inhibitor, single point]
33 | CCC(=O)Nc1nc(C)c(C(=O)Nc2cccc(Cl)c2)s1 |  | inconclusive: 23.1 µM [inhibitor, partial curve]
34 | COc1ccccc1C(=O)NC(=S)Nc1cccc2cc(O)ccc12 | inactive: -22.6% | 
35 | CCCCN(CCCC)CC(O)c1cc(Cl)cc2c1-c1ccc(Cl)cc1C2=Cc1ccc(Cl)cc1 (stereo not given) |  | inconclusive: 31.6 µM [inhibitor, single point]
36 | O=C(NCc1ccccc1Br)C1CCCN(C(=O)N2CCOc3ccccc32)C1 (stereo not given) |  | inconclusive: 23.1 µM [inhibitor, single point]
37 | CCOc1ccc2oc(C(=O)N3CCN(Cc4ccccc4)CC3)c(C)c2c1 |  | inconclusive: 11.6 µM [inhibitor, partial curve]
38 | COC(=O)c1ccc(NC(=O)CSc2nc3ccc(OC)cc3[nH]2)cc1 |  | active: 23.1 µM
39 | Cc1ccc(NC(=O)CSc2nc(C)c(Cc3ccccc3)c(=O)[nH]2)cc1 |  | inconclusive: 18.4 µM [inhibitor, single point] and inconclusive: 10.3 µM [inhibitor, single point]
40 | NS(=O)(=O)c1ccc(Nc2nc(-c3ccc(O)cc3O)cs2)cc1 | inactive: -8.12% | 
41 | CCCCn1c(N)c(N(C)C(=O)c2ccc(OCC3CCCO3)cc2)c(=O)[nH]c1=O (stereo not given) | inactive: -4.18% | 
42 | O=C(Nc1cccnc1Cl)c1ccc2c(Cl)c3c(nc2c1)CCC3 |  | inconclusive: 16.4 µM [inhibitor, partial curve]
43 | COc1ccc(CNC(=O)COc2ccc(OC)cc2)cc1 | inactive: 5.91% | 
44 | CC(OC(=O)Nc1ccccc1)C(=O)OC1CCCCC1 (stereo not given) | inactive: -2.79% | 
45 | COc1ccc(CCNC(=O)Cc2c(C)c3c(cc(C)c4c(C)coc43)oc2=O)cc1 | inactive: -20.3% | 
46 | CC(C)Cc1nc(N2CCOCC2)c(C#N)c2c1COC(C)(C)C2 |  | inconclusive: 10.3 µM [inhibitor, partial curve]
47 | COc1cc(C(=O)N/N=C/c2ccc(OC(=O)c3ccccc3)c(OC)c2)ccc1O | inactive: -20% | 
48 | COc1ccc(CNC(=O)C2CC(=O)N(c3ccc(OCC(=O)N4C(C)CCCC4C)cc3)C2)cc1 (stereo not given) |  | inconclusive: 23.1 µM [inhibitor, partial curve]

Row | SMILES | activity change, negative = growth inhibition | Potency
49 | CCCCNC(=O)c1nc(-c2ccccc2)oc1-c1ccc(Cl)cc1 |  | inconclusive: 29.1 µM [inhibitor, single point]
50 | O=C(NC1CCCC1)C(c1ccccc1)N(Cc1ccc(F)cc1)C(=O)c1csnn1 (stereo not given) | inactive: -7.76% | 
51 | O=C(COc1ccc2c3c(c(=O)oc2c1)CCC3)NC1CCCCC1 |  | inconclusive: 20.6 µM [inhibitor, partial curve]
52 | CC(C)CCOc1ccc(C(=O)NCC(c2cccs2)N2CCOCC2)cc1 (stereo not given) |  | inconclusive: 29.1 µM [inhibitor, single point]
53 | CCn1c(C)c(C(C)=O)c(N2CCCC2)nc1=S | inactive: -1.3% | 
54 | Cc1ccc(S(=O)(=O)n2cc(-c3ccccc3)c(N)n2)cc1 | inactive: -15.4% | 
55 | Cc1noc(C)c1C(=O)OCC(=O)C12CC3CC(CC(C3)C1)C2 | inactive: -0.542% | 
56 | CSCC[C@H](NC(=O)[C@@H]1Cc2c([nH]c3ccccc23)C2c3ccccc3C(=O)N21)C(=O)NCC1CCCO1 (stereo not given in full) |  | inconclusive: 25.9 µM [inhibitor, single point]
57 | Cc1ccc(-c2nn(-c3ccccc3)cc2CN(Cc2ccccc2)C(=O)CCC(=O)O)o1 | inactive: -5.97% | 
58 | Cc1ccc(NC(=O)CN2C(=O)CSc3ccc(S(=O)(=O)N4CCCC4)cc32)cc1F |  | active: 23.1 µM
59 | CCCC(=O)c1ccc(N2CCN(C(=O)c3ccc(Br)cc3)CC2)c(F)c1 |  | active: 7.31 µM
60 | COc1ccc(CCN2CC(C(=O)NCCCn3nc(C)cc3C)CCC2=O)cc1 (stereo not given) | inactive: 19.1% | 
61 | CC(=O)Oc1cc2c(C(=O)NCc3ccncc3)c(C)oc2c2ccccc12 |  | inconclusive: 14.6 µM [inhibitor, partial curve]
62 | Cc1cc(C)nc(/N=C(\N)Nc2ccc(S(=O)(=O)Nc3nccc(C)n3)cc2)n1 | inactive: -1.72% | 
63 | C[C@H](NC(=O)CNC(=O)[C@@H](NC(=O)[C@H](Cc1ccccc1)NC(=O)CNC(=O)CNC(=O)[C@@H](N)Cc1ccccc1)[C@@H](C)O)C(=O)N[C@@H](CCCN=C(N)N)C(=O)N[C@@H](CCCCN)C(=O)N[C@@H](CO)C(=O)N[C@@H](C)C(=O)N[C@@H](CCCN=C(N)N)C(=O)N[C@H](CN)CCCCN | inactive: -1.41% [at 4.12 µM] | 
64 | COc1cccc(CSc2nc3cc4c(cc3cc2C)OCCO4)c1 |  | active: 29.1 µM
65 | Cc1cc(OCCCn2cnc3ccccc3c2=O)ccc1[N+](=O)[O-] |  | inconclusive: 10.3 µM [inhibitor, partial curve]
66 | CCCCOc1ccc(C(=O)OCC(=O)c2c(N)n(C)c(=O)n(C)c2=O)cc1 | inactive: -12.9% | 
67 | O=C(Cc1ccccc1[N+](=O)[O-])NCCC1=CCCCC1 |  | inconclusive: 16.4 µM [inhibitor, single point]
68 | Cn1c(/C=C/c2cccc(Br)c2)nc2ccccc2c1=O |  | inconclusive: 25.9 µM [inhibitor, single point]
69 | Nc1nnnn1/N=C/c1ccc(N2CCCCC2)c([N+](=O)[O-])c1 |  | active: 13 µM
70 | N#Cc1cnn(-c2nc3sc4c(c3c(=O)[nH]2)CCCC4)c1N |  | active: 14.6 µM
